# Laboratory results: the supplement of paper PMC8728848
# This is one part of the list.
# Experiments:
# Test in all cases: glycan array binding signal (z-score within array); higher = stronger binding
# Details in all cases: glycan notation: IUPAC condensed, linker removed
# Neu5Ac(a2-3)Gal = target: Neu5Ac(a2-3)Gal
# Procedure, shortened: (§1)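 Arrays were curated from the Consortium for Functional Glycomics database, 3228 in total, and kept only where the protein sequence was available. Binding is expressed as a within-array Z-score. This score was averaged across arrays of the same protein sequence at different concentrations or buffers and across linkers, and negative values can be read as non-binding.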
# [1] = target: Neu5Ac(a2-3)Gal(b1-3)GalNAc
# Procedure, shortened: as §1
# [2] = target: Neu5Ac(a2-3)Gal(b1-3)GalNAc(b1-3)Gal(a1-4)Gal(b1-4)Glc
# Procedure, shortened: as §1
# [3] = target: Neu5Ac(a2-3)Gal(b1-3)GalNAc(b1-4)[Neu5Ac(a2-3)]Gal(b1-4)Glc
# Procedure, shortened: as §1
# [4] = target: Neu5Ac(a2-3)Gal(b1-3)GalNAc(b1-4)[Neu5Ac(a2-8)Neu5Ac(a2-3)]Gal(b1-4)Glc
# Procedure, shortened: as §1
# [5] = target: Neu5Ac(a2-3)Gal(b1-3)GalNAc6S
# Procedure, shortened: as §1
# [6] = target: Neu5Ac(a2-3)Gal(b1-3)GlcNAc
# Procedure, shortened: as §1
# [7] = target: Neu5Ac(a2-3)Gal(b1-3)GlcNAc(b1-2)Man
# Procedure, shortened: as §1
# [8] = target: Neu5Ac(a2-3)Gal(b1-3)GlcNAc(b1-2)Man(a1-3)[GlcNAc(b1-4)][Neu5Ac(a2-3)Gal(b1-3)GlcNAc(b1-2)Man(a1-6)]Man(b1-4)GlcNAc(b1-4)GlcNAc
# Procedure, shortened: as §1
# [9] = target: Neu5Ac(a2-3)Gal(b1-3)GlcNAc(b1-2)Man(a1-3)[Neu5Ac(a2-3)Gal(b1-3)GlcNAc(b1-2)Man(a1-6)]Man(b1-4)GlcNAc(b1-4)GlcNAc
# Procedure, shortened: as §1
# [10] = target: Neu5Ac(a2-3)Gal(b1-3)GlcNAc(b1-3)Gal(b1-3)GlcNAc
# Procedure, shortened: as §1
# [11] = target: Neu5Ac(a2-3)Gal(b1-3)GlcNAc(b1-3)Gal(b1-4)GlcNAc
# Procedure, shortened: as §1
# [12] = target: Neu5Ac(a2-3)Gal(b1-3)GlcNAc(b1-3)GalNAc
# Procedure, shortened: as §1
# [13] = target: Neu5Ac(a2-3)Gal(b1-3)GlcNAc(b1-4)Gal(b1-4)Glc
# Procedure, shortened: as §1
# [14] = target: Neu5Ac(a2-3)Gal(b1-3)GlcNAc(b1-6)GalNAc
# Procedure, shortened: as §1
# [15] = target: Neu5Ac(a2-3)Gal(b1-3)GlcNAc6S
# Procedure, shortened: as §1
# [16] = target: Neu5Ac(a2-3)Gal(b1-3)[Fuc(a1-4)]GlcNAc
# Procedure, shortened: as §1
# [17] = target: Neu5Ac(a2-3)Gal(b1-3)[Fuc(a1-4)]GlcNAc(b1-3)Gal(b1-3)[Fuc(a1-4)]GlcNAc
# Procedure, shortened: as §1
# [18] = target: Neu5Ac(a2-3)Gal(b1-3)[Fuc(a1-4)]GlcNAc(b1-3)Gal(b1-4)[Fuc(a1-3)]GlcNAc
# Procedure, shortened: as §1
# [19] = target: Neu5Ac(a2-3)Gal(b1-3)[GlcNAc(b1-6)]GalNAc
# Procedure, shortened: as §1
# [20] = target: Neu5Ac(a2-3)Gal(b1-3)[Neu5Ac(a2-3)Gal(b1-4)]GlcNAc
# Procedure, shortened: as §1
# [21] = target: Neu5Ac(a2-3)Gal(b1-3)[Neu5Ac(a2-6)]GalNAc
# Procedure, shortened: as §1
# [22] = target: Neu5Ac(a2-3)Gal(b1-3)[Neu5Ac(a2-6)]GlcNAc(b1-3)[Fuc(a1-3)[Gal(b1-4)]GlcNAc(b1-6)]Gal(b1-4)Glc
# Procedure, shortened: as §1
# [23] = target: Neu5Ac(a2-3)Gal(b1-3)]Neu5Ac(a2-3)Gal(b1-4)]GlcNAc
# Procedure, shortened: as §1
# Neu5Ac(a2-3)Gal(b1-4)Glc = target: Neu5Ac(a2-3)Gal(b1-4)Glc
# Procedure, shortened: as §1
# [24] = target: Neu5Ac(a2-3)Gal(b1-4)GlcNAc
# Procedure, shortened: as §1
# [25] = target: Neu5Ac(a2-3)Gal(b1-4)GlcNAc(b1-2)Man
# Procedure, shortened: as §1
# [26] = target: Neu5Ac(a2-3)Gal(b1-4)GlcNAc(b1-2)Man(a1-3)[GlcNAc(b1-2)Man(b1-4)GlcNAc(b1-2)Man(a1-6)]Man(b1-4)GlcNAc(b1-4)GlcNAc
# Procedure, shortened: as §1
# [27] = target: Neu5Ac(a2-3)Gal(b1-4)GlcNAc(b1-2)Man(a1-3)[GlcNAc(b1-4)][Neu5Ac(a2-3)Gal(b1-4)GlcNAc(b1-2)Man(a1-6)]Man(b1-4)GlcNAc(b1-4)GlcNAc
# Procedure, shortened: as §1
# [28] = target: Neu5Ac(a2-3)Gal(b1-4)GlcNAc(b1-2)Man(a1-3)[Neu5Ac(a2-3)Gal(b1-4)GlcNAc(b1-2)Man(a1-6)]Man(b1-4)GlcNAc(b1-4)GlcNAc
# Procedure, shortened: as §1
# [29] = target: Neu5Ac(a2-3)Gal(b1-4)GlcNAc(b1-2)Man(a1-3)[Neu5Ac(a2-3)Gal(b1-4)GlcNAc(b1-2)Man(a1-6)]Man(b1-4)GlcNAc(b1-4)[Fuc(a1-6)]GlcNAc
# Procedure, shortened: as §1
# [30] = target: Neu5Ac(a2-3)Gal(b1-4)GlcNAc(b1-2)Man(a1-3)[Neu5Ac(a2-6)Gal(b1-4)GlcNAc(b1-2)Man(a1-6)]Man(b1-4)GlcNAc(b1-4)GlcNAc
# Procedure, shortened: as §1
# [31] = target: Neu5Ac(a2-3)Gal(b1-4)GlcNAc(b1-2)[Neu5Ac(a2-3)Gal(b1-4)GlcNAc(b1-4)]Man(a1-3)[GlcNAc(b1-4)][Neu5Ac(a2-3)Gal(b1-4)GlcNAc(b1-2)[Neu5Ac(a2-3)Gal(b1-4)GlcNAc(b1-6)]Man(a1-6)]Man(b1-4)GlcNAc(b1-4)GlcNAc
# Procedure, shortened: as §1
# [32] = target: Neu5Ac(a2-3)Gal(b1-4)GlcNAc(b1-2)[Neu5Ac(a2-3)Gal(b1-4)GlcNAc(b1-4)]Man(a1-3)[GlcNAc(b1-4)][Neu5Ac(a2-3)Gal(b1-4)GlcNAc(b1-4)Man(a1-6)]Man(b1-4)GlcNAc(b1-4)GlcNAc
# Procedure, shortened: as §1
# [33] = target: Neu5Ac(a2-3)Gal(b1-4)GlcNAc(b1-2)[Neu5Ac(a2-3)Gal(b1-4)GlcNAc(b1-6)]Man(a1-6)[Neu5Ac(a2-3)Gal(b1-4)GlcNAc(b1-2)Man(a1-3)]Man(b1-4)GlcNAc(b1-4)GlcNAc
# Procedure, shortened: as §1
# [34] = target: Neu5Ac(a2-3)Gal(b1-4)GlcNAc(b1-2)[Neu5Ac(a2-3)Gal(b1-4)GlcNAc(b1-6)]Man(a1-6)[Neu5Ac(a2-3)Gal(b1-4)GlcNAc(b1-2)Man(a1-3)][GlcNAc(b1-4)]Man(b1-4)GlcNAc(b1-4)GlcNAc
# Procedure, shortened: as §1
# [35] = target: Neu5Ac(a2-3)Gal(b1-4)GlcNAc(b1-3)Gal
# Procedure, shortened: as §1
# [36] = target: Neu5Ac(a2-3)Gal(b1-4)GlcNAc(b1-3)Gal(b1-3)GlcNAc
# Procedure, shortened: as §1
# [37] = target: Neu5Ac(a2-3)Gal(b1-4)GlcNAc(b1-3)Gal(b1-4)GlcNAc
# Procedure, shortened: as §1
# [38] = target: Neu5Ac(a2-3)Gal(b1-4)GlcNAc(b1-3)Gal(b1-4)GlcNAc(b1-2)Man(a1-3)[Neu5Ac(a2-3)Gal(b1-4)GlcNAc(b1-3)Gal(b1-4)GlcNAc(b1-2)Man(a1-6)]Man(b1-4)GlcNAc(b1-4)GlcNAc
# Procedure, shortened: as §1
# [39] = target: Neu5Ac(a2-3)Gal(b1-4)GlcNAc(b1-3)Gal(b1-4)GlcNAc(b1-3)Gal(b1-4)GlcNAc
# Procedure, shortened: as §1
# [40] = target: Neu5Ac(a2-3)Gal(b1-4)GlcNAc(b1-3)Gal(b1-4)GlcNAc(b1-3)Gal(b1-4)GlcNAc(b1-2)Man(a1-3)[Neu5Ac(a2-3)Gal(b1-4)GlcNAc(b1-3)Gal(b1-4)GlcNAc(b1-3)Gal(b1-4)GlcNAc(b1-2)Man(a1-6)]GalNAc
# Procedure, shortened: as §1
# [41] = target: Neu5Ac(a2-3)Gal(b1-4)GlcNAc(b1-3)Gal(b1-4)GlcNAc(b1-3)GalNAc
# Procedure, shortened: as §1
# [42] = target: Neu5Ac(a2-3)Gal(b1-4)GlcNAc(b1-3)Gal(b1-4)GlcNAc(b1-3)[Neu5Ac(a2-3)Gal(b1-4)GlcNAc(b1-3)Gal(b1-4)GlcNAc(b1-6)]GalNAc
# Procedure, shortened: as §1
# [43] = target: Neu5Ac(a2-3)Gal(b1-4)GlcNAc(b1-3)Gal(b1-4)GlcNAc(b1-6)[Gal(b1-3)]GalNAc
# Procedure, shortened: as §1
binder,measurement,setting,value
"AAL (Agrocybe aegerita), Q6WY08 (protein) MQGVNIYNISAGTSVDLAAPVTTGDIVTFFSSALNLNAGAGNPNNTTLNLFAENGAYLLHIAFRLQENVIIFNSRQPDGPWLVEQRVSDVANQFAGIDGKAMVTVFDHGDKYQVVINEKTVIQYTKQISGLTLSLSYNATEETSIFSTVVEAVTYTGLALEHHHHHH",glycan array binding signal (z-score),Neu5Ac(a2-3)Gal,-0.138
same,glycan array binding signal (z-score),[1],1.14
same,glycan array binding signal (z-score),[2],1.72
same,glycan array binding signal (z-score),[3],0.132
same,glycan array binding signal (z-score),[4],-0.106
same,glycan array binding signal (z-score),[5],0.751
same,glycan array binding signal (z-score),[6],-0.15
same,glycan array binding signal (z-score),[7],-0.118
same,glycan array binding signal (z-score),[8],-0.166
same,glycan array binding signal (z-score),[9],-0.144
same,glycan array binding signal (z-score),[10],-0.155
same,glycan array binding signal (z-score),[11],-0.157
same,glycan array binding signal (z-score),[12],-0.134
same,glycan array binding signal (z-score),[13],-0.129
same,glycan array binding signal (z-score),[14],-0.129
same,glycan array binding signal (z-score),[15],-0.147
same,glycan array binding signal (z-score),[16],-0.161
same,glycan array binding signal (z-score),[17],-0.152
same,glycan array binding signal (z-score),[18],-0.132
same,glycan array binding signal (z-score),[19],-0.033
same,glycan array binding signal (z-score),[20],-0.158
same,glycan array binding signal (z-score),[21],-0.123
same,glycan array binding signal (z-score),[22],-0.141
same,glycan array binding signal (z-score),[23],-0.153
same,glycan array binding signal (z-score),Neu5Ac(a2-3)Gal(b1-4)Glc,-0.125
same,glycan array binding signal (z-score),[24],-0.111
same,glycan array binding signal (z-score),[25],-0.141
same,glycan array binding signal (z-score),[26],5.88
same,glycan array binding signal (z-score),[27],1.77
same,glycan array binding signal (z-score),[28],1.8
same,glycan array binding signal (z-score),[29],3.85
same,glycan array binding signal (z-score),[30],0.196
same,glycan array binding signal (z-score),[31],2.98
same,glycan array binding signal (z-score),[32],5.72
same,glycan array binding signal (z-score),[33],-0.064
same,glycan array binding signal (z-score),[34],1.46
same,glycan array binding signal (z-score),[35],0.044
same,glycan array binding signal (z-score),[36],0.282
same,glycan array binding signal (z-score),[37],0.098
same,glycan array binding signal (z-score),[38],-0.117
same,glycan array binding signal (z-score),[39],0.953
same,glycan array binding signal (z-score),[40],-0.107
same,glycan array binding signal (z-score),[41],-0.106
same,glycan array binding signal (z-score),[42],-0.098
same,glycan array binding signal (z-score),[43],0.11
